# The campaign covered roughly 310,000 compounds. About 2,200 (0.71%) showed an effect of 50% or more. The effect is printed as a negative number. The list shows a part of the results.
# Target: human ether-à-go-go-related gene (hERG) potassium channel (human, UniProt Q12809)
# Experiment: primary screen, population patch clamp on CHO cells stably expressing hERG
# Chain of human ether-à-go-go-related gene (hERG) potassium channel (Q12809 whole entry, looked up): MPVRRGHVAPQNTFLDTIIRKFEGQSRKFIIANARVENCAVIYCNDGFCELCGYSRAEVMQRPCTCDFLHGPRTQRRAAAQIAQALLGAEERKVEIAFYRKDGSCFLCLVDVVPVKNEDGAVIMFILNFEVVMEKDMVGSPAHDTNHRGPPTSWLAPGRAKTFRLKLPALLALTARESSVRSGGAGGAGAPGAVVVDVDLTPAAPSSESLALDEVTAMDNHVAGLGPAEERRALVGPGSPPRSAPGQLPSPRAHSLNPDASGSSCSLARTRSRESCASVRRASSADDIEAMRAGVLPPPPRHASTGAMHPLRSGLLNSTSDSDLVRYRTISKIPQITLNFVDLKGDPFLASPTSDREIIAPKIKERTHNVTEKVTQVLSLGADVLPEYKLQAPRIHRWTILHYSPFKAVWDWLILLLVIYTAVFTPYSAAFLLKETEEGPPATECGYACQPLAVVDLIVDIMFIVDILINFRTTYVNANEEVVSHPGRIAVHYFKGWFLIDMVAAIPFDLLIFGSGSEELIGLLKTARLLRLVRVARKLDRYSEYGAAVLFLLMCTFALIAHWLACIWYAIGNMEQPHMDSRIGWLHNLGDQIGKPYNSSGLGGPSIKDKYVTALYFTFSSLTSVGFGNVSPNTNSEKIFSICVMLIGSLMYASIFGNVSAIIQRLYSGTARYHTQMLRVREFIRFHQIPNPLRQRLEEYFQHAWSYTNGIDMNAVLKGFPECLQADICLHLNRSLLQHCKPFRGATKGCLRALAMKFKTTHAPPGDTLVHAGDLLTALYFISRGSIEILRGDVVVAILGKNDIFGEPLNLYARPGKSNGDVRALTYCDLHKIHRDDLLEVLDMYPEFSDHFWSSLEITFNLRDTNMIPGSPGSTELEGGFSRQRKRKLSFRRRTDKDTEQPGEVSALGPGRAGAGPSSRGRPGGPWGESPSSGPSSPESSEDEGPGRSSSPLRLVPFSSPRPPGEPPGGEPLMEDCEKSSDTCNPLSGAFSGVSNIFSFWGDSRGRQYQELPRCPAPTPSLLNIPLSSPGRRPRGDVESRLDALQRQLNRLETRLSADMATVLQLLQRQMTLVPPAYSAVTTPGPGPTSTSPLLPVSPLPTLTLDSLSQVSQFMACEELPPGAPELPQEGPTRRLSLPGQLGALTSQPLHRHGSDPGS
row,SMILES,"hERG current change (%, negative = inhibition) at 1uM [%]"
1,Brc1ccc(CSc2nnc3ccccn23)cc1,2.56
2,O=C(Oc1cccc(/C=N/Nc2nc(Nc3ccccc3)nc(N3CCOCC3)n2)c1)c1ccco1,8.93
3,Clc1ccccc1CN1CCN(c2ncccn2)CC1,10.9
4,Cc1cccc(NC(=O)c2cc([N+](=O)[O-])ccc2Cl)c1O,8.28
5,CCOC(=O)Cc1[nH]nc2c1C(C1C=CCCC1)C(C#N)=C(N)O2 (stereo not shown),0.387
6,COc1cccc(/C=C/C(=O)Oc2ccc(C(=O)c3ccc(F)cc3)cc2)c1,15.2
7,COc1nc(Cc2ccc(Cl)cc2)nc2ccccc12,1.6
8,Cc1cccc(OCCn2cnc(Cl)c2Cl)c1,0.945
9,Cc1ccccc1C(=O)N/N=C/c1ccccn1,1.37
10,Cc1ccc(NC(=S)NC2CCCC2)c(C)c1,8.96
11,O=C(Nc1cccc2ccccc12)c1ccccc1Cl,9.52
12,Cc1cccc(OC2CCN(Cc3nc(CC4CC4)no3)CC2)c1,7.08
13,O=C1NCCCc2c1oc1cc(Br)c(O)c(Br)c21,-6.17
14,O=C(O)c1cccc(Nc2ccc3nonc3c2[N+](=O)[O-])c1,5.77
15,Cc1ccc(CN(C)C(=O)c2ccc(NS(=O)(=O)c3ccc4[nH]c(=O)[nH]c4c3)cc2)cc1,20.3
16,O=C(COC(=O)c1cc(S(=O)(=O)N2CCOCC2)ccc1F)Nc1ccc(Cl)cn1,-2.03
17,CCOc1ccc(S(=O)(=O)N2CCOCC2)cc1NC(=O)CN1C(=O)NC2(CCCC2)C1=O,12.7
18,CCN(c1ccccc1)S(=O)(=O)c1cc(C(=O)Oc2ccc3c(C)cc(=O)oc3c2)ccc1C,1.76
19,COc1ccc(-c2ccnc3cc(C(=O)O)nn23)cc1,18.7
20,C/C=C/c1ccc(OCCn2cncn2)c(OC)c1,4.5
21,CC(C)N1CCC(NC(=O)NC2CCCCC2)CC1,12.8
22,CCOc1ccc(NC(=S)N2CCN(S(C)(=O)=O)CC2)cc1,10.9
23,O=C(c1ccc2c(c1)N(Cc1ccc(F)cc1)C(=O)CS2)N1CCOCC1,-1.67

row,SMILES,"hERG current change (%, negative = inhibition) at 1uM [%]"
1,CN(C)C(=O)c1cc(C(=O)c2ccccc2C(F)(F)F)c[nH]1,7.42
2,CC(C)Cc1nnc(NC(=O)c2ccc3c(c2)NC(=O)C(C)S3)s1 (stereo not shown),-9.27
3,CN(C)c1nc(NS(=O)(=O)c2ccc(Cl)cc2)nc(N(C)C)n1,-6.7
4,O=C(CN1CCSCC1)N/N=C/c1ccccc1F,-6.58
5,CO/N=C(/CNC(=O)c1cccc(Cl)c1)c1ccc(Cl)cc1,11.6
6,O=C(c1cc(C2CC2)nc2ccc(Br)cc12)N1N=C(C(F)F)CC1(O)C(F)F (stereo not shown),2.1
7,O=C(Nc1ccccc1)Nc1ccc(Nc2ccccc2)cc1,11.6
8,O=C(O)CC/C(=N\Nc1ccc(Cl)cc1)c1cccs1,18.5
9,Cc1cc(=O)oc2cc(OCC(=O)NC3CCCCC3)ccc12,-9.25
10,CC1CCN(c2nc3ccccc3nc2C(C#N)C(=O)OC2CCCCC2)CC1 (stereo not shown),10.8
11,COC(=O)CC(=O)CSc1nc2c(cc1C#N)CCC2,13.6
12,NC(=O)c1ccc(Nc2ccc3nonc3c2[N+](=O)[O-])cc1,14.1
13,Cc1ccc(N2CCN(CC3CC=CCC3)CC2)cc1 (stereo not shown),-8.75
14,Cc1cc(C)nc(N/N=C/c2ccccc2OCc2ccccc2)n1,9.26
15,Cc1ccc(-c2nn(-c3ccccc3)cc2C(=O)OCC(=O)Nc2ncc(Cl)cc2Cl)cc1,6.91
16,O=C(CSc1nnnn1-c1ccccc1)Nc1nc(-c2ccccc2)ns1,14.1
17,CCOC(=O)/C(N=Nc1ccc(Cl)cc1)=C(/O)c1ccc([N+](=O)[O-])cc1,8.05
18,CCN(CC)C(=O)c1[nH]cnc1C(=O)Nc1ccc(Cl)cc1,15.1
19,Cc1cccc(N2C(=O)CC(N(C(=O)c3ccco3)c3cccc(C)c3)C2=O)c1 (stereo not shown),5.25
20,COc1ccccc1NC(=O)CCSc1nnc(-c2ccco2)o1,9.46
21,CC1CCN(c2ccccc2NC(=O)c2cc([N+](=O)[O-])ccc2N2CCOCC2)CC1,3.41
22,O=C(OCC(=O)c1ccc(Cl)s1)c1ccc2ccccc2n1,4.97
23,COc1ccc(-n2c(=O)c3c4c(sc3n3cnnc23)CC(C)CC4)cc1 (stereo not shown),9.85

# From article PMC4336329 (PLoS ONE, 2015)
